Measurements published in PubChem BioAssay AID686978 (National Center for Advancing Translational Sciences (NCATS), 2013).
Among all 420,000 compounds or so, about 64,000 (15%) were called active. Inconclusive means that the source gave no clear call. Such entries were picked first, then a sample of the others. Calls follow the shape of the dose curve; as a rule, active = well fitted inhibition curve with a large enough effect; inconclusive = small, poorly fitted or top-dose-only effect; inactive = flat fitted curve, though single readings scatter. Potencies of inconclusive entries are left out as doubtful fits.

assay: qHTS for Inhibitors of human tyrosyl-DNA phosphodiesterase 1 (TDP1): qHTS in cells in absence of CPT; conditions: DT40 Tdp1-/- hTDP1 cells, no CPT, ATP luminescence, 48 h; activity change, negative = growth inhibition: at 46.2 µM (top of the series) unless noted; also: nearly all actives have a fitted effect of over 55% in size
How it was run: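 DT40 Tdp1-/-;hTDP1 cells, no CPT (DMSO vehicle only), 400 cells/well; compounds pin-transferred; ≥48 hr, 37 °C; CellTiter-Glo 30 min RT dark, luminescence read.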
% is scaled to controls: 0 for no effect and ±100 for the full control effect; potency is read from the fitted curve at half-maximal effect; tags tell the direction and shape of the fitted curve.

Row | Structure (SMILES) | Potency | activity change, negative = growth inhibition
1 | COc1cccc(C(=O)N/N=C/c2ccc(Oc3ccc([N+](=O)[O-])cn3)c(OC)c2)c1 | inconclusive [inhibitor, single point] | 
2 | COc1ccc(C(=O)OCCOc2ccccc2C(C)=O)c(O)c1 |  | inconclusive: -31.9% [inhibitor]
3 | COC(=O)CN(Cc1ccccc1)S(=O)(=O)c1ccc(OC)c(OC)c1 | inactive | 
4 | COc1cc(C(=O)NCCNC(=O)c2cnccn2)cc(OC)c1OC | inactive | 
5 | Cc1ccc(-c2nc3c(c(SCC(=O)N4CCCC4)n2)COC(C)(C)C3)cc1 | inconclusive [inhibitor, single point] | 
6 | CCOC(=O)c1ccc2c(c1)nc(-c1ccccn1)n2CC | inconclusive [inhibitor, single point] | 
7 | COc1ccc(/C=C2\SC(=O)N(CC(=O)Nc3cccnc3)C2=O)cc1OC | inconclusive [inhibitor, single point] | 
8 | CC1CCCCN1C(=O)COC(=O)c1cc(Cl)c2c(c1)OCO2 (stereo not given) | inactive | 
9 | CCOC(=O)c1c(C)n(-c2ccc(OC)cc2)c2ccc(O)c(CN(C)C)c12 | active: 16.4 µM | 
10 | O=C(Nc1ccccc1Cl)Nn1cnnc1 | inactive | 
11 | O=C1CN(C(=O)c2ccc(S(=O)(=O)N3CCCC3)cc2)C(c2ccccc2)c2cc(Br)ccc2N1 (stereo not given) | inconclusive [inhibitor, single point] | 
12 | COc1ccc(C(=O)CSc2nnc3n2CCCN3C(=O)Nc2ccccc2)cc1 | inconclusive [inhibitor, single point] | 
13 | O=C(Nc1ccc(-n2cccn2)cc1)C1CCN(Cc2ccccn2)CC1 | inactive | 
14 | CC(C)N(Cc1ccccc1)C(=O)C1CCN(c2ncnc3c2nc2n3CCCCC2)CC1 | active: 18.4 µM | 
15 | CCOC(=O)c1c(C)[nH]c(C)c1S(=O)(=O)NCC1CCN(Cc2ccccc2F)CC1 | inconclusive [inhibitor, single point] | 
16 | CCOc1ccc(-c2nnc(SCC(=O)NCc3ccccc3)o2)cc1 | inconclusive [inhibitor, partial curve] | 
17 | CCOP(=O)(c1ccc(N(C)C)cc1)C(O)c1ccc(C)cc1 (stereo not given) | inactive | 
18 | Cc1c(NC(=S)N/N=C/c2ccc(O)cc2)c(=O)n(-c2ccccc2)n1C | inconclusive [inhibitor, single point] | 
19 | Cc1nnc(N2CCC(C(=O)NCCc3ccccc3)CC2)c2nn(-c3ccc(Cl)cc3)c(C)c12 | active: 20.6 µM | 
20 | Cc1c(CCOC(=O)C23CC4(C)CC(C)(CC(C)(C4)C2)C3)sc[n+]1CC(=O)c1ccccc1 | inconclusive [inhibitor, single point] | 
21 | CCOC(=O)CSc1nc(C)c2cc(C)c(C)cc2n1 | inconclusive [inhibitor, single point] | 
22 | CC(N)c1csc(Nc2cc(Oc3ccccc3)ncn2)n1 (stereo not given) | active: 0.0411 µM | 
23 | CC(C)(C)C(=O)NC1(C(F)(F)F)C(=O)Nc2c1c(=O)[nH]c(=O)n2-c1ccccc1 (stereo not given) | inactive | 

Row | Structure (SMILES) | Potency | activity change, negative = growth inhibition
24 | CCc1nc2ccc(C(=O)Nc3cccc(NS(C)(=O)=O)c3)cn2c1N(CC)Cc1cccc(Br)c1 | active: 16.4 µM | 
25 | NC(=O)CCC(NC(=O)c1ccc(Cl)cc1)C(=O)O (stereo not given) | inactive | 
26 | Cc1cccc(N2CC(C(=O)OCC(=O)c3c(N)n(CC(C)C)c(=O)n(C)c3=O)CC2=O)c1C (stereo not given) | inconclusive [inhibitor, partial curve] | 
27 | CC12CCC(=O)N1C(C(=O)Nc1cc(Cl)ccc1N1CCCC1)CS2 (stereo not given) | inconclusive [inhibitor, single point] | 
28 | COc1ccc2c(c1)C(=O)N(c1ccc(C)cc1C)C(=O)C2(C)C | inconclusive [inhibitor, partial curve] | 
29 | O=C1C2C3C=CC(C3)C2C(=O)N1CCCCCCN1C(=O)C2C3C=CC(C3)C2C1=O (stereo not given) | inconclusive [inhibitor, partial curve] | 
30 | CCOc1ccc(N2C(=O)CC(NCC#N)C2=O)cc1 (stereo not given) | inconclusive [inhibitor, single point] | 
31 | CCOc1cccc(N2C(=O)CC(N(CCc3ccc(OC)c(OC)c3)C(=O)CC)C2=O)c1 (stereo not given) | inactive | 
32 | CC1(C)C(=O)OC(C(=O)c2ccc(C(C)(C)C)cc2)C(C)(C)C1=O (stereo not given) | inconclusive [inhibitor, full curve] | 
33 | Cc1ccc2nc(SCC(=O)N/N=C/c3ccco3)cc(C)c2c1 | inactive | 
34 | O=C(Nc1ccccc1N1CCCCC1)C1CCN(C(=O)c2ccc(Cl)cc2)CC1 | inconclusive [inhibitor, single point] | 
35 | CN[C@H]1C[C@@H](c2ccccc2)N(C(C)=O)C[C@H]1CO | inactive | 
36 | COc1ccc(-c2c(C(F)(F)F)oc3cc(OCC(=O)Nc4ccccc4C(F)(F)F)ccc3c2=O)cc1OC | inconclusive [inhibitor, partial curve, poor fit] | 
37 | O=C(/C=C/c1cccc(F)c1)Nc1ccc(S(=O)(=O)N2CCOCC2)cc1 | inconclusive [inhibitor, single point] | 
38 | COc1ccccc1-c1sc2ccccc2c1-c1ccc(C(C)=O)cc1 | inconclusive [inhibitor, single point] | 
39 | Cc1ccccc1OCC(=O)NCC(=O)N/N=C/c1ccc(Br)o1 |  | inconclusive: -36.7% [inhibitor]
40 | Cc1ccc(-c2noc(CCC(=O)Nc3ccc4c(c3)OCO4)n2)cc1 | inconclusive [inhibitor, partial curve] | 
41 | COc1ccc(CNC(=O)CCc2c(C)nc3c(c(C)nn3-c3ccccc3)c2C)cc1 | inconclusive [inhibitor, single point] | 
42 | CN1C[C@H]2c3ccccc3Oc3ccc(Cl)cc3[C@@H]2C1 | inconclusive [inhibitor, single point] | 
43 | CC1(C(=O)NS(=O)(=O)c2cccc(F)c2)CCN1C(=O)C1(c2ccc(Cl)cc2)CCC1 (stereo not given) | inactive | 
44 | CC1CN(C(=O)COC(=O)c2ccc(Cl)c(N)c2)CC(C)O1 (stereo not given) | inactive | 
45 | O=C(Cn1nnnc1-c1ccccc1F)Nc1ccc(OC(F)(F)F)cc1 | inconclusive [inhibitor, single point] | 
